Assay results as given in publication PMC3376741.
Results are given in words; binding and its absence hold for the method and conditions named. In cells and extracts the contact can be indirect. Some results given as binding are weak or reduced against the parent protein; the word gives no strength. Where a sequence is shown, tags or fusion partners need not be part of it. Each block holds one binder with its values, some of them ahead of it.

Assays:
PtA::Borealin (human) = biological target: T1, PtA::Borealin (human) (UniProt Q53HL2); experiment: pull-down; PtA pull-down from extracts of unsynchronized HeLa cells transfected for 48 h with PtA::Borealin or PtA alone and a GFP-tagged CHMP4 protein or GFP alone; rabbit IgG Dynabeads; Western blot for GFP and PtA
T1 sequence: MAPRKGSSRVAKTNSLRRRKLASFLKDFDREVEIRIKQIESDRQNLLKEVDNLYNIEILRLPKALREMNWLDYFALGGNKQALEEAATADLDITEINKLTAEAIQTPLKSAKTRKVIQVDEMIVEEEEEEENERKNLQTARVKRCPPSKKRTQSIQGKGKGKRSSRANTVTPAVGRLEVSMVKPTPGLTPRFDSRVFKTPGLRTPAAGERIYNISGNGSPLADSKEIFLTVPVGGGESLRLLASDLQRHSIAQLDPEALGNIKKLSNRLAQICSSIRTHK

[1] = biological target: T2, GST::Borealin (GST::Bor) (human) (UniProt Q53HL2); experiment: pull-down; GST-tagged protein purified from bacteria on glutathione sepharose beads; partner translated in vitro and [35S] methionine-labelled; NET-N+ buffer (50 mM Tris-HCl pH 7.4, 150 mM NaCl, 5 mM EDTA, 0.5% NP-40), in ice 30 min; five washes; exposed to X-ray film; only the target purified
T2 sequence: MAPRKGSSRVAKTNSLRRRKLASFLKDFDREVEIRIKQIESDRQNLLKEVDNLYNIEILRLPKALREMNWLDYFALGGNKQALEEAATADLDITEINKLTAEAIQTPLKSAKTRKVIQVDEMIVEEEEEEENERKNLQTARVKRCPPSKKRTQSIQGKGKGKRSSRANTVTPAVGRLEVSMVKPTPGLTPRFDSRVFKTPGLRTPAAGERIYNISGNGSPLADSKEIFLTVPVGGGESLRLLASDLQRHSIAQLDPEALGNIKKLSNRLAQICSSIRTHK

[2] = biological target: T3, GST::Borr full-length Borr_(1–315) (Drosophila) (UniProt Q9VLD6); experiment: as above
T3 sequence: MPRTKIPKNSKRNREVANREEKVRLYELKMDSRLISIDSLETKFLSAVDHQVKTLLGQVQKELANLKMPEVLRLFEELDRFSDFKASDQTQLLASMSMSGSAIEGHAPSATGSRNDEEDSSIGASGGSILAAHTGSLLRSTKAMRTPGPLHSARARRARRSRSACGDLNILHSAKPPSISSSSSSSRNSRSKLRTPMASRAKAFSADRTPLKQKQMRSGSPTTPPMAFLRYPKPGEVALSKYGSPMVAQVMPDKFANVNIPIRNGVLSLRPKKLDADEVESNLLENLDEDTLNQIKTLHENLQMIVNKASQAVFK

[3] = biological target: T4, GST::Borr_(118–249) (Drosophila) (UniProt Q9VLD6); experiment: as above
T4 sequence: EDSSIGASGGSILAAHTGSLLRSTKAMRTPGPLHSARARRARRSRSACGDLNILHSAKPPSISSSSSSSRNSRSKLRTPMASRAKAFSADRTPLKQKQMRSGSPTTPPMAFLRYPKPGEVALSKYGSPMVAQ

[4] = biological target: T5, GST::Borr_(118–315) (Drosophila) (UniProt Q9VLD6); experiment: as above
T5 sequence: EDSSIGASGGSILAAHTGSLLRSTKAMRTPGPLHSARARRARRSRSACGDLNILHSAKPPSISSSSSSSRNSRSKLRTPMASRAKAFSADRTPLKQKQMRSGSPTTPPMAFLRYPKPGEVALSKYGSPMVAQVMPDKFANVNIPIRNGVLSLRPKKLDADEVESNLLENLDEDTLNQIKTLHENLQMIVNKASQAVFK

[5] = biological target: T6, GST::Borr_(1–117) (Drosophila) (UniProt Q9VLD6); experiment: as above
T6 sequence: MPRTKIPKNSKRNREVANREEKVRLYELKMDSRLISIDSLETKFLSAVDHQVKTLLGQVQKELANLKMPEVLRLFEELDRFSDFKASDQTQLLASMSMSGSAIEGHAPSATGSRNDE

[6] = biological target: T7, GST::Borr_(1–249) (Drosophila) (UniProt Q9VLD6); experiment: as above
T7 sequence: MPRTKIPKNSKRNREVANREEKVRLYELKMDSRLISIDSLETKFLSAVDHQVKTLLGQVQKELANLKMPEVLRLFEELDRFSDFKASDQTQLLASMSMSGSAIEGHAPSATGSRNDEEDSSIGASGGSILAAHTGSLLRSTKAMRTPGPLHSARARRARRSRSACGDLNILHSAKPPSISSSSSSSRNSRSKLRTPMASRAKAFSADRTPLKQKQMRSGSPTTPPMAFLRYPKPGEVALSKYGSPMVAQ

[7] = biological target: T8, GST::Borr_(250–315) (Drosophila) (UniProt Q9VLD6); experiment: as above
T8 sequence: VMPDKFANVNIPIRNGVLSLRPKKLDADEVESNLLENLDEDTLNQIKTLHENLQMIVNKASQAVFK

[8] = biological target: T9, GST::CHMP4C_(122–233) (human) (UniProt Q96CF2); experiment: as above
T9 sequence: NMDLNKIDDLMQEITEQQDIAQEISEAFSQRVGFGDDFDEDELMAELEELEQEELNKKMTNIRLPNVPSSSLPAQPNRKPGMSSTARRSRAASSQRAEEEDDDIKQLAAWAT

[9] = biological target: T10, GST::CHMP4C_(1–121) (human) (UniProt Q96CF2); experiment: as above
T10 sequence: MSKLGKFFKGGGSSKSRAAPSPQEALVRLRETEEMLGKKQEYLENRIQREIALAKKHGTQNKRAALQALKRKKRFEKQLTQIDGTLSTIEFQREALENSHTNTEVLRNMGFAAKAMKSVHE

[10] = biological target: T11, GST::Borealin central region (residues 110–207) (human) (UniProt Q53HL2); experiment: as above
T11 sequence: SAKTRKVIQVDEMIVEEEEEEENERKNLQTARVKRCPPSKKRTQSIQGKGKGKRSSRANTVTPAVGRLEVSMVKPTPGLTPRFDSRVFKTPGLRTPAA

B2: CHMP4B translated and radio-labelled in vitro (protein, UniProt Q9H444 1-224)
chain: MSVFGKLFGAGGGKAGKGGPTPQEAIQRLRDTEEMLSKKQEFLEKKIEQELTAAKKHGTKNKRAALQALKRKKRYEKQLAQIDGTLSTIEFQREALENANTNTEVLKNMGYAAKAMKAAHDNMDIDKVDELMQDIADQQELAEEISTAISKPVGFGEEFDEDELMAELEELEQEELDKNLLEISGPETVPLPNVPSIALPSKPAKKKEEEDDDMKELENWAGSM
modifications: [35S] methionine-labelled
binding [1]: binds

B4: Borealin translated and radio-labelled in vitro (protein, UniProt Q53HL2 1-280)
chain: MAPRKGSSRVAKTNSLRRRKLASFLKDFDREVEIRIKQIESDRQNLLKEVDNLYNIEILRLPKALREMNWLDYFALGGNKQALEEAATADLDITEINKLTAEAIQTPLKSAKTRKVIQVDEMIVEEEEEEENERKNLQTARVKRCPPSKKRTQSIQGKGKGKRSSRANTVTPAVGRLEVSMVKPTPGLTPRFDSRVFKTPGLRTPAAGERIYNISGNGSPLADSKEIFLTVPVGGGESLRLLASDLQRHSIAQLDPEALGNIKKLSNRLAQICSSIRTHK
modifications: [35S] methionine-labelled
binding [8]: no binding
binding [9]: binds

B6: CHMP4A translated and radio-labelled in vitro (protein, UniProt Q9BY43 1-222)
chain: MSGLGRLFGKGKKEKGPTPEEAIQKLKETEKILIKKQEFLEQKIQQELQTAKKYGTKNKRAALQALRRKKRFEQQLAQTDGTLSTLEFQREAIENATTNAEVLRTMELAAQSMKKAYQDMDIDKVDELMTDITEQQEVAQQISDAISRPMGFGDDVDEDELLEELEELEQEELAQELLNVGDKEEEPSVKLPSVPSTHLPAGPAPKVDEDEEALKQLAEWVS
modifications: [35S] methionine-labelled
binding [1]: binds

Continued, values first:

binding (PtA::Borealin (human)): binds
B1: GFP::CHMP4B (protein, UniProt Q9H444 1-224)
chain: MSVFGKLFGAGGGKAGKGGPTPQEAIQRLRDTEEMLSKKQEFLEKKIEQELTAAKKHGTKNKRAALQALKRKKRYEKQLAQIDGTLSTIEFQREALENANTNTEVLKNMGYAAKAMKAAHDNMDIDKVDELMQDIADQQELAEEISTAISKPVGFGEEFDEDELMAELEELEQEELDKNLLEISGPETVPLPNVPSIALPSKPAKKKEEEDDDMKELENWAGSM

binding [2]: binds
binding [3]: no binding
binding [4]: binds
binding [5]: no binding
binding [6]: binds
binding [7]: no binding
B3: Shrb translated and radio-labelled in vitro (protein, UniProt Q8T0Q4 1-226)
chain: MSFFGKMFGGKKEVAPTTGEAIQKLRETENMLIKKQEFLEAKIEDELNIARKNASKNKRVALQALKKKKRLEKQLQQIDGTLSTIEMQREALESANTNTAVLTTMKNAADALKRAHQNMDVDKVHDMMDDIAEQQDVAREISDAISNPVAFGADLDDEDLERELDELEQENFDKEIIGIPEPTPTLPEAPTEDLPEKAKEKKKATTTTAVEDDDDPDMKQLLSWSN
modifications: [35S] methionine-labelled

binding (PtA::Borealin (human)): binds
B5: GFP::CHMP4A (protein, UniProt Q9BY43 1-222)
chain: MSGLGRLFGKGKKEKGPTPEEAIQKLKETEKILIKKQEFLEQKIQQELQTAKKYGTKNKRAALQALRRKKRFEQQLAQTDGTLSTLEFQREAIENATTNAEVLRTMELAAQSMKKAYQDMDIDKVDELMTDITEQQEVAQQISDAISRPMGFGDDVDEDELLEELEELEQEELAQELLNVGDKEEEPSVKLPSVPSTHLPAGPAPKVDEDEEALKQLAEWVS

binding [10]: binds
B7: CHMP4C translated and radio-labelled in vitro (protein, UniProt Q96CF2 1-233)
chain: MSKLGKFFKGGGSSKSRAAPSPQEALVRLRETEEMLGKKQEYLENRIQREIALAKKHGTQNKRAALQALKRKKRFEKQLTQIDGTLSTIEFQREALENSHTNTEVLRNMGFAAKAMKSVHENMDLNKIDDLMQEITEQQDIAQEISEAFSQRVGFGDDFDEDELMAELEELEQEELNKKMTNIRLPNVPSSSLPAQPNRKPGMSSTARRSRAASSQRAEEEDDDIKQLAAWAT
modifications: [35S] methionine-labelled
